Experimental findings from paper PMC12136788 are described below.

The list shows a part of the results.

First the molecules themselves.
T1: UNK ZnF1-3 (human, UniProt Q9C0B0 31-174)
T1 sequence: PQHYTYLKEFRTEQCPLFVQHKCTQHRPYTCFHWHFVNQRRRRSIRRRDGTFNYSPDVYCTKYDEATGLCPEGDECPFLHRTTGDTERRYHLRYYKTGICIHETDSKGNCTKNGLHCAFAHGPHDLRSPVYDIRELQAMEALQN

B1: chr11:87793186:87793187:-_ENSMUSG00000020483_ENSMUST00000020775|mus_hu|motif|central (ssRNA)
RNA: GGGAGUUCUACAGUCCGACGAUCCACAGUCUGGGAGGGCAGGGGGAAACACAGAUUUGGACAUUCAUAAAAAAAUAAAACCGGAAAUCAAGCACUCAAUUUUGUGCCCACUGAAGGGUUUGAUAAAGGGAACUCAGUCACCACCAACAGAGGAUUGAGCAUCA
B2: 95522056_95522652_3691_CDS_ENSG00000164944_ENST00000437199|human|control|control (ssRNA)
RNA: GGGAGUUCUACAGUCCGACGAUCAAUUAGAUGCAAAAUAGCUAAUUUACAAGCUUUGUGUGAAGCCAGAGCAUCAAGAAGAGCAAGCAACCUGGUGGUUUGGCUAGUAUACUGUUUUUCUUUAUCUUCUGAAGUGCUUUGCAACAACAGAGGAUUGAGCAUCA
B3: chr5:132409753:132409754:+_ENSG00000170606_ENST00000304858|hu_mus|FALSE|FALSE (ssRNA)
RNA: GGGAGUUCUACAGUCCGACGAUCUUUAUUAAAUGCACAUACAGAAACUUGAUAGGCAGAAUGUCCCAUAUCUACAAAAACUACAUUUCUUGGUUUUUCUUCUAAGGCAGGAAGGUCUUGUUUAUAGAUUCCAUAAGCAAGAGCCAACAGAGGAUUGAGCAUCA
B4: chr19:3544227:3544228:-_ENSMUSG00000024908_ENSMUST00000113997|mus_mus|motif|central (ssRNA)
RNA: GGGAGUUCUACAGUCCGACGAUCAAAGAAAUGUUUUCUUCUCUGUGGCUCCUUGCCCAUUACAGGUUAUCCUGGUGACAGCGGUCUUCCAAAUUACAUUAGCAGAUUAGCAGAAGUAUGAAAGGAUAUUGUAUGAAACAGAAGCAACAGAGGAUUGAGCAUCA
B5: chrX:69798090:69798091:-_ENSMUSG00000031343_ENSMUST00000055966|mus_mus|mus_mus_mus_hu_False|18_108 (ssRNA)
RNA: GGGAGUUCUACAGUCCGACGAUCAAGUCCCCAGGUUCUUGUCGUCUUGAUUCCCCUUGACCAGUGGUUCCAGGGAGAAUAUUAAUCAGGAAAAGAAUCCCAAGGCUGGUCAUGUAAAAGUGCCACAUUUGUGUGAUUAUCAUCCAACAGAGGAUUGAGCAUCA
B6: 96141451_96141571_2366_3pUTR_ENSMUSG00000047694_ENSMUST00000054697|mouse|control|control (ssRNA)
RNA: GGGAGUUCUACAGUCCGACGAUCUGAAAAUCAGCCUGCCCUAGAUGUUCUGUUCCCUGAAAAGCCUUCACUCUUGUGCGUAAAUAUCUGAGAGGACAGGUAGAUGCACAUGUGCAAAAUGUACAUAUCUAAAGGGAAGCUAAUCAACAGAGGAUUGAGCAUCA
B7: chr1:163112212:163112213:-_ENSG00000143248_ENST00000313961|hu_hu|hu_hu_hu_mus_False|18_28 (ssRNA)
RNA: GGGAGUUCUACAGUCCGACGAUCUUUUAUUAUCAGUAAGAGUGAGUUACAUACUAGGCAAAGUAUUGGAUACAAUAAUCAGGAAACAAACACUAUUGGUCCAGAAUUUAAAAUAUAUGGGAUAAAUUGCUGGCACAGGACUUACAACAGAGGAUUGAGCAUCA
B8: chr18:65376317:65376318:+_ENSMUSG00000024589_ENSMUST00000163516|mus_mus|FALSE|FALSE (ssRNA)
RNA: GGGAGUUCUACAGUCCGACGAUCUGCUAUACCAACAGAAAACUAUCCCUUUCCUAGGAAACACUAGACAGGCUCAUGUCCUAACGCUACAGCUGCUUCUCUGGCACACUGAAAACACUCUGGGGUGGAGUGUGCAUACACAGACAACAGAGGAUUGAGCAUCA
B9: 118376450_118376570_9926_CDS_ENSG00000118058_ENST00000534358|human|control|control (ssRNA)
RNA: GGGAGUUCUACAGUCCGACGAUCUGUUGAUGUGCCUGCCGCUGUGGCAGCAGUUCCUCCCACACUCUGUGGUAACAGGGGUGCCGGUUCAAAAUACAUGAUGCUAGAUUUAGAUCUUUUUAUGAUGUUGGGGACAGUUCGGUGCAACAGAGGAUUGAGCAUCA
B10: 101925690_101925935_438_3pUTR_ENSMUSG00000017314_ENSMUST00000017458|mouse|control|control (ssRNA)
RNA: GGGAGUUCUACAGUCCGACGAUCGGCCUGGGCUUGGGGGUGGUGUCUCAUAGGUCUUUGAAGCCACUGAGUCAUGUGUCUCCAGGAGGGACUGGAAGUGGGGCUCCUGGAGGAUGCGUGCCAGCUCUGCAGCGGUGCUGCUCUCAACAGAGGAUUGAGCAUCA
B11: 36137377_36137497_4277_3pUTR_ENSG00000100320_ENST00000405409|human|control|control (ssRNA)
RNA: GGGAGUUCUACAGUCCGACGAUCGUAAGUUUUCUGGAAUUAUCAGCCAGCAUCCUCUAACAAACUCACGAAAUGCCAGACUCCUCUGACUCUCUUUUUUAAUACAGUGAGAACCAGAGUCAGGAACAGACAAGCAGUGCUGCUCAACAGAGGAUUGAGCAUCA
B12: chr1:59925254:59925255:+_ENSMUSG00000067336_ENSMUST00000087435|mus_mus|FALSE|FALSE (ssRNA)
RNA: GGGAGUUCUACAGUCCGACGAUCAUCUUGUUCUGAACAUGGAUUGCUGUUGUUGUUAUUGGAAUUUGUUCGGCCACCUUCUAAUGGCCGUUCCCUCCUAUCUACCAAACGAUCCAGAACCCCUUCAUCAUGGCCAGCCUGUUGCAACAGAGGAUUGAGCAUCA
B13: chr9:4385736:4385737:+_ENSMUSG00000041124_ENSMUST00000047173|mus_mus|motif|central (ssRNA)
RNA: GGGAGUUCUACAGUCCGACGAUCCUUGGCACUAAUGACAUCUUGGACUGGGUAAUUCUUUCUUGUGAAGACAACGGUGCGGAACAUGGUGAAGCCUCUCCUGAGGCUGGUAGCAUCCUACACCCAUUUACUUUGACCACCAAACAACAGAGGAUUGAGCAUCA
B14: 33587546_33587666_2174_3pUTR_ENSMUSG00000028274_ENSMUST00000108153|mouse|control|control (ssRNA)
RNA: GGGAGUUCUACAGUCCGACGAUCAUCUAUUCACAUACAAACAAGGCCUCUAUUUCAUUAACUUCAAUCUGAUUUAAACCUUUGGGUAUUUCAAUCUGUAGACUCCACAGGGUAAGGCUGAAUUUAUCAGGUAUAAAUAAAAUACAACAGAGGAUUGAGCAUCA

The experiment concerns the target T1, UNK ZnF1-3. In words: nsRBNS (natural sequence RNA bind-n-seq); RBNS binding buffer (assumed for nsRBNS): 25 mM Tris pH 7.5, 150 mM KCl, 3 mM MgCl2, 0.01% Triton X-100, 500 ug/ml BSA, 20 U/ml SUPERase-In, 4 C; UNK is unkempt and MSI1 is Musashi-1; names of the RNAs are library labels; protein concentration not given here; high values mean tight binding.
The molecule B1 had a binding signal of 2.92 enrichment R.
On to B2, for which the binding signal was determined as 1.04 enrichment R.
Molecule B3 displayed a binding signal of 0.635 enrichment R.
Under B4 stands 1.31 enrichment R; under B5, 0.894 enrichment R.
B6: the binding signal was 1.1 enrichment R.
B7 returned a binding signal of 1.65 enrichment R.
Under B8 stands 0.875 enrichment R.
Under B9 stands 0.587 enrichment R; under B10, 0.781 enrichment R.
B11: the binding signal worked out at 0.702 enrichment R.
B12 registered a binding signal of 0.568 enrichment R.
As to B13, the binding signal came out at 0.756 enrichment R.
Under B14 stands 1.17 enrichment R.
